Measured values published in PubChem BioAssay AID360 (National Center for Advancing Translational Sciences (NCATS), 2006).
The whole screen tested about 48,000 compounds, of which about 550 (1.1%) were called active. Not shown: some 4% with an inconclusive outcome. No stated cut-off is given here; in the data, active means potency below about 15 µM; inconclusive means mostly about 16 µM to 33 µM; inactive means weaker than that. The list shows a part of the results.

Target: Lysosomal acid glucosylceramidase (Homo sapiens) (UniProt P04062)
Chain of UniProt P04062 (P04062 whole entry, looked up): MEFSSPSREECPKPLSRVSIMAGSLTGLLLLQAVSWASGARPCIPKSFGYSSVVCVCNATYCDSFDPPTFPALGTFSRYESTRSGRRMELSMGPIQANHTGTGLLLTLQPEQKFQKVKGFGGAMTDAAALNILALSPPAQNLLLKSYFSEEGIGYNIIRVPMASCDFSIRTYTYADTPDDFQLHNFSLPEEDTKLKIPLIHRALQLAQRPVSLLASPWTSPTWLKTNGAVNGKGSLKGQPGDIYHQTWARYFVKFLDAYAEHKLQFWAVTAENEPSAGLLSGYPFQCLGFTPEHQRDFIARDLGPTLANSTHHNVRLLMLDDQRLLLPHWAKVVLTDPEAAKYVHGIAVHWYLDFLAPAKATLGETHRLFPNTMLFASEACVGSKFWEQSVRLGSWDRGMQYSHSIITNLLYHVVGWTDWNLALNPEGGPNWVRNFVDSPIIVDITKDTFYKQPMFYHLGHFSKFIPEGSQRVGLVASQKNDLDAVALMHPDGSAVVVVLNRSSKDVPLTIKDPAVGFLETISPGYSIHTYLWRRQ
Test: Glucocerebrosidase;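 further: the screen sought inhibitors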
Details: purified enzyme, resorufin glucoside fluorescence (screen aimed at inhibitors), 20 min
In short: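 Normal human glucocerebrosidase (0.2 nM final) was assayed with resorufin β-D-glucopyranoside (30 uM final) in 50mM citric acid/KH2PO4, 10mM sodium taurocholate, 0.01% tween-20, pH 5.9. Compounds were titrated; fluorescence (Ex 548, Em 600) read after 20 min at RT.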
Potency means the concentration at half of the fitted maximal effect.

Potency, inactive:
Cc1cc(C)c(S(=O)(=O)N(C)CC(N)=O)c(C)c1 > 76.9 µM
Cc1ccc2oc(-c3cccc(NC(=O)C4CCCO4)c3)nc2c1 (stereo not drawn) > 76.9 µM
COC(=O)[C@H](CCSC)NC(=O)Nc1ccc(OC)cc1 > 76.9 µM
COCCSc1ccccc1C(=O)Nc1nncs1 > 76.9 µM
O=C1c2ccccc2NC(c2ccc(Cl)cc2Cl)N1O (stereo not drawn) > 76.9 µM
COc1ccc(-c2cc(C(=O)N3CCCc4ccccc43)no2)cc1OC > 76.9 µM
Cc1cc(C)n(S(=O)(=O)c2ccc(C)c(C)c2C)n1 > 76.9 µM
CCN(CC(=O)Nc1cccc(C(C)=O)c1)S(=O)(=O)c1ccc(OC)cc1 > 76.9 µM
COc1cccc(C(=O)CSc2nnc(COc3cccc4cccnc34)o2)c1 > 76.9 µM
O=c1[nH]nc(Sc2ncnc3sccc23)n1CCc1ccccc1 > 76.9 µM
O=C(c1ccc(Cl)cc1)N1CCCOC1 > 76.9 µM
c1nc(N2CCCC2)c2[nH]cnc2n1 > 76.9 µM
O=C(NCc1ccco1)C(Cc1ccccc1)NS(=O)(=O)c1cccc2nsnc12 (stereo not drawn) > 76.9 µM
CS(=O)(=O)N1CCC(C(=O)NCCN2CCN(Cc3ccccc3)CC2)CC1 > 76.9 µM
C=C(C)c1cccc(C(C)(C)NC(=O)N2CCN(c3ncccn3)CC2)c1 > 76.9 µM
CCOc1ccccc1CN1C(=O)c2ccccc2C1C(=O)NCC1CCCO1 (stereo not drawn) > 76.9 µM
CCOC(=O)Nc1c(C(=O)OC)[nH]c2cccc(OC)c12 > 76.9 µM
Cc1cccc(-n2nnc(C(=O)Nc3ccc(F)cc3)c2N)c1 > 76.9 µM
O=C(NC1CCCCCCC1)c1ccco1 > 76.9 µM
O=C(Nc1ccc(S(=O)(=O)N2CCc3ccccc3C2)cc1)C1CCCO1 (stereo not drawn) > 76.9 µM
CCOC(=O)C1CCN(c2c(NCc3ccc(C(=O)NCCOC)cc3)c(=O)c2=O)CC1 > 76.9 µM
COc1ccc(N(CC(=O)NCc2ccco2)S(C)(=O)=O)cc1 > 76.9 µM
CCC(NS(=O)(=O)c1ccc(C)cc1)C(=O)N1CCC2(O)CCCCC2C1 (stereo not drawn) > 76.9 µM
c1coc(-c2nc(-c3ccncc3)no2)c1 > 76.9 µM
COc1ccc(N2CCN(C(CNS(=O)(=O)c3cccs3)c3cccnc3)CC2)cc1 (stereo not drawn) > 76.9 µM
COCCNC(C)C(=O)C12CC3CC(CC(C3)C1)C2 (stereo not drawn) > 76.9 µM
CC(C)=CC(=O)Nc1ccccc1C(N)=O > 76.9 µM
CSc1n[nH]c(NC2=CC(=O)CCC2)n1 > 76.9 µM
COc1ccccc1-c1nnc2sc(COc3ccc(Cl)cc3Cl)nn12 > 76.9 µM
CCN(C1CCCCC1)S(=O)(=O)c1ccc(C(=O)O)cc1 > 76.9 µM
Cc1cccc2nc(Cn3c(=O)n(CCC(=O)NCc4ccco4)c(=O)c4ccccc43)cc(=O)n12 > 76.9 µM
Cc1noc(C)c1CSc1nc2cc(S(=O)(=O)N3CCOCC3)ccc2o1 > 76.9 µM
COc1ccccc1CN1C(=O)[C@@H]2C(CCC(N)=O)NC3(C(=O)Nc4c3ccc(Cl)c4C)[C@@H]2C1=O (stereo partly drawn) > 76.9 µM
Cc1cc(NC(=O)CSc2ccc3nnc(-c4cccc(F)c4)n3n2)no1 > 76.9 µM
COc1ccccc1CNC(=O)c1ccoc1C > 76.9 µM
CC(=O)Nc1nonc1NC(=O)CSC1=NCCS1 > 76.9 µM
O=C(CCN1C(=O)c2ccccc2C1=O)N1CCN(C(=O)c2ccccc2)CC1 > 76.9 µM
O=C1OC(Nc2ccc(F)cc2F)c2ccccc21 (stereo not drawn) > 76.9 µM
COc1ccc(OC)c(NC(=O)C23CCC(C)(C(=O)O2)C3(C)C)c1 (stereo not drawn) > 76.9 µM
COc1cc(OC)c(NC(=O)CCNS(=O)(=O)c2cc(Br)cnc2N)cc1Cl > 76.9 µM
CCn1c(=O)c(C(=O)CN2CCOCC2)c(N)n(Cc2ccccc2)c1=O > 76.9 µM
c1ccc(-n2ncc3c(N4CCN(c5ccccn5)CC4)nc(N4CCCCC4)nc32)cc1 > 76.9 µM
COCCNC(=O)c1ccc2ccccc2n1 > 76.9 µM
CC(C)C(=O)Nc1cccc(NC(=O)CCN2C(=O)c3ccccc3S2(=O)=O)c1 > 76.9 µM
Cc1nn(-c2ccccc2)c2nc(N)c(C#N)c(-c3ccc(F)cc3)c12 > 76.9 µM
c1ccc2c(CNCCN3CCOCC3)cccc2c1 > 76.9 µM
COc1ccccc1-n1c(CNC(=O)COc2ccccc2)n[nH]c1=S > 76.9 µM
CCC(C)c1ccc(O)c(NC(=O)c2ncn[nH]2)c1 (stereo not drawn) > 76.9 µM
O=C(NCCOc1ccccc1)c1ncn[nH]1 > 76.9 µM
CCCCNC(=O)CC1N=C2c3ccccc3N=C(SCC(=O)Nc3ccc(OC)cc3)N2C1=O (stereo not drawn) > 76.9 µM
COc1cc(C2C(C#N)=C(N)Oc3c2oc(CO)cc3=O)cc(OC)c1OC (stereo not drawn) > 76.9 µM
CC(C)(C)C1CCc2onc(C(=O)N3CCOCC3)c2C1 (stereo not drawn) > 76.9 µM
Cn1c(C(=O)OC(C(=O)NC2CCCCC2)c2ccncc2)cc2sccc21 (stereo not drawn) > 76.9 µM
COCCNC(=O)COc1cc(=O)n(C)c2ccccc12 > 76.9 µM
CC1=CCC(COC(=O)Nc2ccccc2)CC1 (stereo not drawn) > 76.9 µM
CCSc1nc2ccccc2n1CCC(=O)O > 76.9 µM
C=CCn1c(N)nc2ccccc21 > 76.9 µM
O=C1COc2ccc(OCc3ccc(F)cc3)cc21 > 76.9 µM
CCOC(=O)C1C(=O)NC(N2CCN(c3ccccc3)CC2)=NC1c1ccco1 (stereo not drawn) > 76.9 µM
Cn1c(SCc2ccccc2)nnc1-c1cccs1 > 76.9 µM
CC1CN(C(=O)Cc2ccc(-c3ccccc3)cc2)CC(C)O1 (stereo not drawn) > 76.9 µM
Nc1nonc1-n1nncc1-c1ccccc1 > 76.9 µM
C=CCN(CC=C)CC(O)Cn1c2ccccc2c2ccccc21 (stereo not drawn)
COc1ccc(OC)c(-c2c[n+](=O)c3c(n2[O-])CCCC3)c1 > 76.9 µM
O=C(NC1CCCCC1)NC1CCN(S(=O)(=O)Cc2ccccc2)CC1 > 76.9 µM
Cc1ccc(C)c2[nH]c(=O)c(CN(Cc3ccc4c(c3)OCO4)Cc3nnnn3Cc3ccco3)cc12 > 76.9 µM
COc1ccc(OC)c(S(=O)(=O)N2CCC(C(=O)NC(C)c3ccccc3)CC2)c1 (stereo not drawn) > 76.9 µM
CCC(OC(=O)CC1Sc2ccccc2NC1=O)C(=O)NCC1CCCO1 (stereo not drawn) > 76.9 µM
CC(C)(C)n1nnnc1C(c1cccs1)N(Cc1ccccc1)Cc1ccco1 (stereo not drawn)
COc1cccc(C2CC(c3cccs3)Nc3ncnn32)c1 (stereo not drawn) > 76.9 µM
O=C(O)c1ccc(NS(=O)(=O)/C=C/c2ccccc2)cc1O > 76.9 µM
C#CCN1C(=O)C(O)(CC(=O)c2cc(OC)ccc2OC)c2ccccc21 (stereo not drawn) > 76.9 µM
C=CCN1C(=O)CN=C1NCc1ccccc1 > 76.9 µM
Cn1c(SCC(=O)Nc2cccc(NC(=O)c3cccs3)c2)nnc1-c1ccncc1 > 76.9 µM
O=C(CN1CCN(c2ccccn2)CC1)N1c2ccccc2Sc2ccc(C(F)(F)F)cc21
Cc1cc(C)c(S(=O)(=O)NCc2cn3c(C)csc3n2)cc1C > 76.9 µM
O=C(Nc1ccccc1)N(Cc1cccnc1)Cc1ccco1 > 76.9 µM
CCc1sc(C(=O)NC)cc1Br > 76.9 µM
Cc1cccc2cc(CN(Cc3cccs3)C3(c4nnnn4C4CCCC4)CCCC3)c(=O)[nH]c12 > 76.9 µM
CCOC(=O)c1c(C)oc2c1c(/C=N/c1ccccn1)c(O)c1ccccc12 > 76.9 µM
Cc1ccc(C)c(N2CCN(C(=O)C3CCN(c4nnc(N5CCCC5=O)s4)CC3)CC2)c1 > 76.9 µM
COc1ccc(C(=O)Nc2ccc(Cl)cn2)cc1Cl > 76.9 µM
COc1cccc(N2C(=O)C3CC=C(Cl)CC3C2=O)c1 (stereo not drawn) > 76.9 µM
Cc1csc(NC(=O)c2ccoc2C)n1 > 76.9 µM
COc1cc(C2=NOC(C(=O)N3CCOCC3)C2)cc(OC)c1OC (stereo not drawn) > 76.9 µM
Cn1ccnc1Sc1nnnn1-c1ccccc1 > 76.9 µM
Cn1c(/C(C#N)=C(\O)c2ccc(S(=O)(=O)N3CCCCC3)cc2)nc2ccccc21 > 76.9 µM
O=C(NCc1ccc(F)cc1)c1ccc(CS(=O)(=O)Cc2ccccc2F)o1 > 76.9 µM
COc1cc2c(C#N)c(N3CCOCC3)nc(N)c2c(N)n1 > 76.9 µM
Nn1c(SCC(=O)Nc2ccc3c(c2)OCO3)nnc1C1CC1 > 76.9 µM
Cc1ccc2cccc(SCC(=O)NCc3ccco3)c2n1 > 76.9 µM
CCc1ccccc1N(CC(=O)OC)S(C)(=O)=O > 76.9 µM
CCOc1ccc(NC(=O)C2CCN(S(=O)(=O)c3c(C)n[nH]c3C)CC2)cc1 > 76.9 µM
